Measurements taken from patent US5994629A, “Positive selection” (priority 1991, dated 1999).
Where a name gives a salt, the structure may show the parent alone.

Experiments:
[1] = tested on: tobacco leaf discs co-cultivated with Agrobacterium; experiment: Positive selection of transformed shoots using ZOGN sodium salt; type: cell-based; conditions: pH 8.0
Procedure: Using essentially the same procedure as described in Example 13 transgenic tobacco shoots were prepared and selected using cytokinin glucuronide zeatin-o-β-glucuronic acid (ZOGN) as the positive selection agent.
Co-cultivation was carried out for 3 days, the inoculum density corresponding to an OD of 1.5 at 660 nm. The substrate used after co-cultivation was MSO containing 300 mg/l carbenicillin, 300 mg/l cefotaxime and 0.1 mg/l indole acetic acid (IAA). Subcultivation after 3 weeks was to the same substrate but without IAA. The pH in all substrates used in this example was 8.0. 18 leaf discs were used for each treatment.
Five weeks after co-cultivation the shoots were transferred to an MSO substrate containing 200 mg/l kanamycin sulfate, 32 mM saccharic acid, 300 mg/l cefotaxime and 300 mg/l carbenicillin, pH 8.0. Saccharic acid, an inhibitor of β-glucuronidase enzymes, was added to stop further conversion of zeatin glucuronide to zeatin. Together with the β-glucuronidase gene an NPT gene providing resistance to kanamycin was co-transferred. Non-transformed shoots (negative controls) survived, but the growth of these shoots was retarded on this substrate, while all of the transformed shoots (positive controls) containing an active NPT gene survived without any growth retardation.
The number of shoots was registered and the number of GUS-positive shoots among the total number of shoots was determined by the X-gluc assay (Example 3) 3 weeks after the last sub-cultivation (8 weeks after co-cultivation).

[2] = tested on: tobacco leaf discs co-cultivated with Agrobacterium; experiment: Positive selection using ZOGN sodium salt at different temperatures; type: cell-based
Procedure: Transgenic tobacco shoots were prepared using essentially the same procedure as described below in Example 13. Co-cultivation was carried out for 3 days, the inoculum density corresponding to an OD of 1.5 at 660 nm. The substrate used after co-cultivation was MSO containing 10 mg/l 1-(2-hydroxyethylamino)-6-benzylamino-9-methylpurine (9-met), 350 mg/l carbenicillin, 350 mg/l cefotaxime and 0.1 mg/l indole acetic acid (IAA) and ZOGN sodium salt as indicated. 9-met (obtained from Apex Organics Ltd., UK) was added to inhibit glycosylation of zeatin and zeatin derivatives. 18 leaf discs were used for each treatment.
Seven weeks after co-cultivation the shoots were transferred to an MSO substrate containing 300 mg/l kanamycin sulfate, 350 mg/l cefotaxime, 350 mg/l carbenicillin, 0.1 mg/l IAA and 10 mg/l 6-(m-hydroxybenzylamino)-purine (OH-BA) and placed at a temperature of 25° C. OH-BA can be prepared as described by Kaminek et al. (Plant Growth Reg. 6, pp 113-120, 1987).
After six weeks on the kanamycin-containing substrate the number of green shoots was registered. […] No non-transformedshoots (negative controls) survived on this substrate, while all of the transformed shoots (positive controls) containing an active NPT gene survived.
The percentage of kanamycin resistant shoots among the total number of regenerated shoots was calculated as the number of green shoots surviving on the kanamycin-containing substrate divided by the number of shoots transferred to the kanamycin-containing substrate.

[3] = ZOGN 0.07 mg/l + SL (2 mM saccharo 1,4-lactone)
[4] = ZOGN 0.07 mg/l, 8 weeks after co-cultivation

Structure (SMILES): C/C(=C\CNc1ncnc2[nH]cnc12)CO[C@@H]1O[C@H](C(=O)O)[C@@H](O)[C@H](O)[C@H]1O [ZOGN sodium salt, O-β-D-glucopyranuronosylzeatin, sodium salt]
- % GUS-positive shoots among total shoots [1, 3]: 0%
- GUS-postive shoots per leaf disc [1, 3]: 0
- % GUS-positive shoots among total shoots [1, 4]: 18.5%
- GUS-postive shoots per leaf disc [1, 4]: 0.3
- % GUS-positive shoots among total shoots ([1]; ZOGN 1.0 mg/l): 40.3%
- GUS-postive shoots per leaf disc ([1]; ZOGN 1.0 mg/l): 2.8
- % GUS-positive shoots among total shoots ([1]; ZOGN 15.0 mg/l): 5.1%
- GUS-postive shoots per leaf disc ([1]; ZOGN 15.0 mg/l): 0.2
- % Kanamycin-res. Shoots among total shoots ([2]; 25 ° C., ZOGN 1 mg/l): 4.3%
- Kanamycin-res. Shoots per leaf disc ([2]; 25 ° C., ZOGN 1 mg/l): 0.3
- % Kanamycin-res. Shoots among total shoots ([2]; 25 ° C., ZOGN 15 mg/l): 0%
- Kanamycin-res. Shoots per leaf disc ([2]; 25 ° C., ZOGN 15 mg/l): 0
- % Kanamycin-res. Shoots among total shoots ([2]; 30 ° C., ZOGN 1 mg/l): 14.8%
- Kanamycin-res. Shoots per leaf disc ([2]; 30 ° C., ZOGN 1 mg/l): 1.3
- % Kanamycin-res. Shoots among total shoots ([2]; 30 ° C., ZOGN 15 mg/l): 26.2%
- Kanamycin-res. Shoots per leaf disc ([2]; 30 ° C., ZOGN 15 mg/l): 2.4
- % Kanamycin-res. Shoots among total shoots ([2]; 35 ° C., ZOGN 1 mg/l): 26.7%
- Kanamycin-res. Shoots per leaf disc ([2]; 35 ° C., ZOGN 1 mg/l): 0.2
- Kanamycin-res. Shoots per leaf disc ([2]; 35 ° C., ZOGN 15 mg/l): 0.2
